Sequences and labels used below:
B1: mAb10932 (antibody)
heavy: EVQLVESGGGLVQSGGSLRLSCAASGLTVSSNYMSWVRQAPGKGLEWVSVIYSGGSTFYSDSVKGRFTISRHNSKNTLYLQMNSLRAEDTAVYYCARARGDAFDIWGQGTMVTVSS[human IgG1 constant region left out]
light: DIQMTQSPSSLSASVGDRVTITCQASQGISNYLNWYQQKPGKAPKLLISDASNLETGVPSRFSGSGSGTDFTFTISSLQPEDIATYYCQQYDNLRFFTFGPGTKVDIKRTVAAPSVFIFPPSDEQLKSGTASVVCLLNNFYPREAKVQWKVDNALQSGNSQESVTEQDSKDSTYSLSSTLTLSKADYEKHKVYACEVTHQGLSSPVTKSFNRGEC
B2: mAb10967 (antibody)
heavy: EVQLVESGGGLVQPGGSLRLSCAASGFTVSSNYMSWVRQAPGKGLEWVSVIYPGGSTFYADSVKGRFTISRDNSKNTLYLQMNSLRAEDTAVYYCARDQRDFAWGQGTLVTVSS[human IgG1 constant region left out]
light: DIQMTQSPSSLSASVGDRVTITCQASQDISNYLNWYQQKPGKAPKLLIYDASNLETGVPSRFSGSGSGTDFTFTISGLQPEDIATYYCQQYDNLPPTFGQGTRLEIKRTVAAPSVFIFPPSDEQLKSGTASVVCLLNNFYPREAKVQWKVDNALQSGNSQESVTEQDSKDSTYSLSSTLTLSKADYEKHKVYACEVTHQGLSSPVTKSFNRGEC
B3: mAb10956 (antibody)
heavy: EVQLVESGGGLVQPGGSLRLSCAASGLTVSSNYMSWVRQAPGKGLEWVSVIYSGGSTFYADSVKGRFTISRDNSKNTLYLQMNSLRAEDTAVYYCARDLIKYGMDVWGQGTTVTVSS[human IgG1 constant region left out]
light: DIQMTQSPSSLSASVGDRVTITCQASQDISNYLNWYQQKPGKAPKLLIYDASNLETGVPSRFSGSGSGTDFTFTISSLQPEDIATYYCQQYDNLPPHFGPGTKVDIKRTVAAPSVFIFPPSDEQLKSGTASVVCLLNNFYPREAKVQWKVDNALQSGNSQESVTEQDSKDSTYSLSSTLTLSKADYEKHKVYACEVTHQGLSSPVTKSFNRGEC

“And” between values parts separate entries of the source, which are not always exact repeats. Identical values can stand only once.

The target of this experiment is SARS-CoV-2 Spike Protein (RBD)(R319-F541).mmH (SARS-CoV-2). Description: Luminex, supernatant. The settings on record: remark: other sources report otherwise.
As to B1, the MFI was 30000 MFI and 30100 MFI.

Take B2: the MFI was 28500 MFI and 26500 MFI.

B3: the MFI is 27900 MFI and 25700 MFI.
